# “And” between values parts separate entries of the source, which are not always exact repeats. Equal values may be shown once. Hit rate of the full screen: of about 390,000 compounds, about 930 (0.24%) were called active. This list was built around the results that the source calls inconclusive (neither active nor inactive); the mix of calls is not that of the screen. Calls come from the whole dose curve; as a rule, active = well fitted activation curve with a large enough effect; inconclusive = small, poorly fitted or top-dose-only effect; inactive = no such curve, though single readings can be large or run the other way. Potencies of inconclusive entries are doubtful fits and often do not repeat.
# Assay: qHTS for Suppressors of FUS Proteinopathy: Primary screen using FUS-linked yeast assay; note: nearly all actives have a fitted effect of over 55% in size;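 for growth rescue (activation): plate controls were DMSO vehicle for no effect and reference control for full effect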
# Conditions: S. cerevisiae FUS-expressing, OD600, 24 h; Potency: growth rescue; growth rescue (activation): at 76.6 µM (top of the series)
# How it was run: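 Toxicity suppression screen in FUS-yeast. Cells induced with 2% galactose, starting OD 0.005, treated 24hr at 30C with compounds at multiple final concentrations; growth by OD600.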
# Potency is the fitted concentration of half-maximal effect; tags give direction and shape of the fitted curve.
Compound,Potency,growth rescue (activation)
COc1ccc(-c2cc(C)no2)cc1S(=O)(=O)N1CCN(c2ccccc2F)CC1,"inconclusive: 39.8 µM [activator, single point] and inconclusive: 7.08 µM [activator, partial curve]",
COc1ccc(OCC(=O)NC2CC(=O)N(c3ccc4c(c3)OCCO4)C2)cc1 (stereo not given),"inconclusive: 4.47 µM [activator, single point]",
COc1ccc(C2C(C(N)=O)=C(C)Nc3nc(-c4cccc(Cl)c4)nn32)cc1OC (stereo not given),"inconclusive: 35.5 µM [activator, single point]",
Cc1cc(-c2ccccc2)nc(SCc2ccc(C(=O)O)o2)n1,"inconclusive: 0.891 µM [activator, full curve, poor fit]",
Cc1nn(-c2ccccc2)c2sc(-c3n[nH]c(=S)o3)cc12,active: 7.08 µM,
COc1ccc(-c2[nH]n(-c3ccc([N+](=O)[O-])cc3)c(=O)c2C=NCc2ccccc2)cc1,"inconclusive: 8.91 µM [activator, partial curve, poor fit]",
O=C(COc1ccc(Cl)cc1)Nc1ccc2oc(-c3ccncc3)nc2c1,"inconclusive: 12.6 µM [activator, partial curve, poor fit]",
CC(C)(C)C(=O)Nc1ccc(Oc2ccc3c(c2)C(=O)N(c2ccc(O)cc2)C3=O)cc1,"inconclusive: 17.8 µM [activator, partial curve, poor fit]",
COc1ccc(-c2noc(-c3ccccc3C(=O)Nc3cccc(OC)c3)n2)cc1,inactive,
Cc1ccc(NC(=O)c2cnc(N3CCN(c4ccccn4)CC3)c3ccccc23)c(Br)c1,inactive,
COc1ccc(N2C(=O)CS(=O)(=O)C23C(=O)N(Cc2ccc(C)cc2)c2ccccc23)cc1Cl (stereo not given),"inconclusive: 44.7 µM [activator, single point]",
Cn1c(N)c(C(=O)COC(=O)CCCOc2ccc(Cl)cc2Cl)c(=O)n(C)c1=O,"inconclusive: 22.4 µM [activator, single point]",
Oc1c(CN2CCc3ccccc3C2)cc(Cl)c2cccnc12,inactive,
COc1ccc(S(=O)(=O)Nc2ccc3c(c2)C(=O)N([C@H](C)CO)C[C@H](C)[C@@H](CN(C)S(=O)(=O)c2ccc(F)cc2)O3)cc1,"inconclusive: 35.5 µM [activator, single point]",
COc1ccc(C(=O)/C=C\N2CCOCC2)cc1,"inconclusive: 28.2 µM [activator, single point]",
CSc1ncc(CN2CCCC(C(=O)Nc3ccc(-c4ccco4)cc3)C2)cn1 (stereo not given),"inconclusive: 14.1 µM [activator, partial curve]",
CCc1c(C(=O)NCCc2cccc(C)c2)[nH]c(C)c1C(C)=O,"inconclusive: 11.2 µM [activator, partial curve]",
CCCCCC(=O)Nc1cccc(C2=NOC3(C2)C[C@@H](C(N)=O)N(C(=O)c2cc([N+](=O)[O-])cc([N+](=O)[O-])c2)C3)c1 (stereo not given in full),"inconclusive: 25.1 µM [activator, partial curve]",
CCOC(=O)c1[nH]c2ccc(OC)cc2c1NC(=S)N1CCN(c2ccccc2OC)CC1,"inconclusive: 28.2 µM [activator, single point]",
CCCCCCCn1c2c(c(=N)c3ccccc31)CCC2,inactive,

Compound,Potency,growth rescue (activation)
COc1ccc(CN(C)CC(=O)Nc2cccc(S(N)(=O)=O)c2)c(OC)c1OC,inactive,
COc1ccc(CCNC(=O)COc2cc(O)c3c(c2)OC(C)(C)CC3=O)cc1OC,"inconclusive: 20 µM [activator, partial curve]",
COc1cccc(-c2cnc3c(NC(C)=O)cc(-c4ccc(S(C)(=O)=O)cc4)cn23)c1,"inconclusive: 31.6 µM [activator, single point]",
NC(=O)C1CCN(C2CC(=O)N(Cc3ccc(N4CCCC4=O)cc3)C2=O)CC1 (stereo not given),,inconclusive: 88.8% [activator]
CC[C@]12c3[nH]c4ccccc4c3CCN1C(=O)C(CC(=O)NCc1cccc(C(F)(F)F)c1)C[C@@H]2C(=O)N1CCN(C(=O)c2ccco2)CC1 (stereo not given in full),"inconclusive: 28.2 µM [activator, partial curve, poor fit]",
COc1ccc(NC(=O)C(c2cc3ccccc3o2)n2c(=O)c(-c3cc4ccccc4[nH]3)nc3ccccc32)cc1 (stereo not given),"inconclusive: 44.7 µM [activator, single point]",
O=C(NCc1cccnc1)Nc1ccc(Cl)cc1,inactive,
Cc1cc(F)ccc1S(=O)(=O)N1CCCOC1CNC(=O)C(=O)NCCC1=CCCCC1 (stereo not given),"inconclusive: 22.4 µM [activator, partial curve, poor fit]",
Cc1ccc2[nH]c(C(=O)N3CCCC(Nc4ccc(F)cc4)C3)cc2c1 (stereo not given),"inconclusive: 31.6 µM [activator, single point]",
COc1ccc(CCN2C(=O)c3[nH]nc(-c4ccccc4O)c3C2c2cccc(Cl)c2)cc1 (stereo not given),"inconclusive: 28.2 µM [activator, partial curve, poor fit]",
COc1ccc(NC(=O)C2CCCN(S(=O)(=O)c3ccc4c(c3)oc(=O)n4C)C2)c(OC)c1 (stereo not given),"inconclusive: 35.5 µM [activator, partial curve, poor fit]",
C=CCc1c(C)nc2nc(SCC(=O)Nc3ccc(C)c(C)c3)nn2c1C,inactive,
COc1ccc(-n2c(SCC(=O)Nc3ccc(S(=O)(=O)Nc4nccs4)cc3)nnc2-c2ccco2)cc1,"inconclusive: 8.91 µM [activator, partial curve]",
Cc1c(C(C)c2ccccc2O)c2ccccc2n1C (stereo not given),"inconclusive: 20 µM [activator, single point]",
COc1ccc(CCNC(=O)c2cnn(-c3ccc(F)cc3)c2C2CCN(C(=O)OC(C)(C)C)CC2)c(OC)c1,"inconclusive: 14.1 µM [activator, partial curve, poor fit]",
CC1CCN(C(=S)SCc2nc(N)nc(Nc3ccccc3)n2)CC1,"inconclusive: 50.1 µM [activator, single point]",
Cc1c(NC(=O)CSc2nnc3c4ccccc4n(CCc4ccccc4)c3n2)c(=O)n(-c2ccccc2)n1C,"inconclusive: 39.8 µM [activator, partial curve, poor fit]",
COc1cccc(C(c2c(NC(=O)c3ccco3)sc(C)c2C)N2CCOCC2)c1 (stereo not given),"inconclusive: 35.5 µM [activator, single point]",
Cc1ccc(S(=O)(=O)N(CC(=O)NCCc2ccc(Cl)cc2)c2ccccc2C)cc1,"inconclusive: 28.2 µM [activator, partial curve, poor fit]",
Cc1ccc(C2(C)NC(=O)N(CC(=O)Nc3cc(S(=O)(=O)N4CCOCC4)ccc3OC(C)C)C2=O)cc1 (stereo not given),"inconclusive: 28.2 µM [activator, single point]",

Compound,Potency,growth rescue (activation)
CCc1ccc(OCC(=O)N(Cc2ccc(C)o2)C2CCS(=O)(=O)C2)cc1 (stereo not given),inactive,
CCOC(=O)c1c(-c2ccc(OC)cc2)csc1NC(=O)CCN1C(=O)c2ccccc2C1=O,"inconclusive: 6.31 µM [activator, full curve]",
CCOc1ccc(C2=NNC(c3cccs3)=Nc3ccc(OC)cc32)cc1,active: 17.8 µM,
O=c1c2c(nc3c(-c4ccccc4)c[nH]n13)CCC2,"inconclusive: 11.2 µM [activator, partial curve, poor fit]",
COc1ccc(C2C(C#N)=C(N)N(Nc3ccccc3)C3=C2C(=O)CC(C)(C)C3)cc1C (stereo not given),"inconclusive: 50.1 µM [activator, single point]",
O=C1NCC(c2ccccc2)C1C(=O)N/N=C\c1ccc(-c2ccc(Cl)c(Cl)c2)o1 (stereo not given),"inconclusive: 31.6 µM [activator, single point]",
O=C(CN1CCN(Cc2ccccc2Cl)CC1)N/N=C\c1ccccc1F,inactive,
CCCCCCSc1cc(-c2nc3cnccn3c2NCc2ccccc2)ccc1OC,"inconclusive: 31.6 µM [activator, single point]",
CCc1c(C)sc(NC(=S)Nc2nc(C)cc(C)n2)c1C(=O)OC,inactive,
O=C(NCCC1=CCCCC1)c1ccc2c(=O)n3nc(Nc4ccccc4)sc3nc2c1,inactive,
COc1ccc2nc3n(c(=O)c2c1)-c1cc2ccccc2cc1C(=O)NC3Cc1ccccc1 (stereo not given),"inconclusive: 22.4 µM [activator, single point]",
Cc1ccc(-c2nc3c4ccccc4ccn3c2Cc2ccccc2)cc1,"inconclusive: 31.6 µM [activator, single point]",
O=C(Nc1cccn(Cc2c(F)cccc2Cl)c1=O)NC1CCCCC1,inactive,
CCOc1ccc(NC(=O)CCSc2nnc(C)s2)cc1,"inconclusive: 44.7 µM [activator, single point]",
COc1ccccc1-c1nc2c(c(SCC(=O)N3CCCCC3)n1)Cc1c(CO)cnc(C)c1O2,"inconclusive: 2.82 µM [activator, full curve]",
COc1ccc(C)cc1NC(=O)c1cc(S(=O)(=O)N2CCCCC2)ccc1N1CCOCC1,"inconclusive: 28.2 µM [activator, single point]",
COc1cccc(OCc2nc3ccccc3n2Cc2ccccc2C)c1,inactive,
CC(=O)Nc1ccc(C(=O)CSc2nnc(-c3ccccc3F)n2CCc2ccccc2)cc1,"inconclusive: 5.01 µM [activator, full curve]",
Cc1cc(CNC(=O)c2cccc3c2C(=O)c2ccc(-c4ccc(F)cc4OCc4ccccc4)cc2S3(=O)=O)c(C(F)(F)F)o1,"inconclusive: 35.5 µM [activator, single point]",
Cc1ccc(OCC(=O)Nc2ccc(C)c(S(=O)(=O)N3CCCCC3)c2)c([N+](=O)[O-])n1,inactive,

# Source: PubChem BioAssay AID1347120 (National Center for Advancing Translational Sciences (NCATS), 2019)
